Measurements from ChEMBL document CHEMBL4888484, “Replenishing the malaria drug discovery pipeline: Screening and hit evaluation of the MMV Hit Generation Library 1 (HGL1) against asexual blood stage Plasmodium falciparum ,using a nano luciferase reporter read-out” (2022).
The whole screen tested about 150,000 compounds, of which about 540 (0.36%) showed an effect of 50% or more. The list shows a part of the results.

The compounds below were run on Plasmodium falciparum (assay: Primary screen in NF54 nanoGlo assay, in single point, at 2uM, 72h; a lower Z score goes with more inhibition). Details: timepoint 72 hour.
Type: functional, Erythrocyte
With `CCN(C)C(=O)c1ccc(COc2ccc3c(c2)[C@H](c2ccc(F)cc2)N(C(=O)C2CCCC2)CC3)o1` the “% Inhibition” value was -17% and the Z score was 2.85.
`CCn1ncc(Br)c1C(=O)N[C@H]1CCC(=O)N(C)C1` was tested, and the “% Inhibition” value was -9% and the Z score was 1.7.
With `CCCn1cnc2cc(CNC(=O)c3cnccn3)ccc21` the “% Inhibition” value was -16% and the Z score was 2.61.
`COc1ccc([C@H](CNC(=O)c2oc3cc(Br)ccc3c2C)N2CCCCC2)cc1` was tested, and the “% Inhibition” value was 5% and the Z score was -0.54.
In the case of `CCN(CCS(=O)(=O)c1ccc(C)cc1)Cc1cccc(C(=O)O)c1`, the “% Inhibition” value is reported as -11% and the Z score is reported as 1.58.
`CN(C)CCOc1cc2c3c(c1)CCCN3CCC2` was tested, and the “% Inhibition” value was -34% and the Z score was 4.03.
In the case of `O=C(c1nn(-c2ccccc2)cc1O)N1CCN(c2cccc(Cl)c2)CC1`, the “% Inhibition” value is reported as -7% and the Z score is reported as 1.47.
`CCc1cc([C@@H]2CCCN2S(=O)(=O)c2ccccc2C)on1` was tested, and the “% Inhibition” value was -5% and the Z score was 0.74.
`COc1cc(N(Cc2ccsc2)C(=O)CC#N)ccc1Cl` was tested, and the “% Inhibition” value was -14% and the Z score was 1.44.
`O=C(Cn1c(=O)n(Cc2ccc(C(=O)NCCc3ccc(Cl)cc3)cc2)c(=O)c2ccccc21)NC1CCCC1` was tested, and the “% Inhibition” value was -3% and the Z score was 0.4.
In the case of `Cc1ccc([C@@H](C)C(=O)N2CC(c3nc(-c4ccccc4)no3)C2)o1`, the “% Inhibition” value is reported as 4% and the Z score is reported as -0.55.
For `Cc1ccc2c(c1)Oc1cc(Oc3ccccc3C)c(S(=O)(=O)N3CCCCC3)cc1C(=O)N2`, the “% Inhibition” value was -11% and the Z score was 1.52.
With `O=C(c1cc2ccccc2[nH]1)N1CC(N2CCCC2)C1` the “% Inhibition” value was -10% and the Z score was 1.9.
For `CC(C)CNC(=O)CN(C)C(=O)c1cc2n(n1)CCCN(Cc1ccc(F)cc1)C2=O`, the “% Inhibition” value was -5% and the Z score was 1.04.
For `CN(C)c1cccc(CNCc2cnc(N3CCOCC3)nc2)c1`, the “% Inhibition” value was -2% and the Z score was 0.27.
In the case of `O=C1N(CC2CCC2)CCC[C@@]12CCN(c1nc3ccccc3s1)C2`, the “% Inhibition” value is reported as -4% and the Z score is reported as 0.63.
In the case of `CC[C@@](C)(CC(=O)OC)NC(=O)Nc1ccccc1OC`, the “% Inhibition” value is reported as 0% and the Z score is reported as 0.05.
In the case of `CC(C)(C)C(=O)NCc1nccnc1-c1ccco1`, the “% Inhibition” value is reported as 13% and the Z score is reported as -1.73.
For `COCc1ncc(C)n1[C@H]1CCN(C(=O)CCCc2c[nH]c3ccccc23)C1`, the “% Inhibition” value was -6% and the Z score was 0.74.
With `NC(=O)N1CCC[C@H](C(=O)N(CC#Cc2ccccc2)C2CCCC2)C1` the “% Inhibition” value was -25% and the Z score was 5.37.
In the case of `COc1ccc(N2C3=[N+](CCCCC3)C[C@]2(O)c2ccc(OC)cc2)cc1`, the “% Inhibition” value is reported as 0% and the Z score is reported as -0.08.
`Cc1noc(NC(=O)c2cccc(S(C)(=O)=O)c2)c1-c1ccccc1` was tested, and the “% Inhibition” value was 10% and the Z score was -0.96.
With `Cn1cc(C(C)(C)C(=O)N2CC(C)(CO)C2)cn1` the “% Inhibition” value was -7% and the Z score was 0.93.
For `CCn1ncnc1CNC1CC(C)(c2ccccc2)C1` (stereo unspecified), the “% Inhibition” value was -11% and the Z score was 1.42.
`CC(=O)c1ccc(S(=O)(=O)N2CCN(c3cnsn3)CC2)cc1` was tested, and the “% Inhibition” value was -13% and the Z score was 1.66.
For `O=C1CCC(Nc2ccc(Br)cn2)C(C2CC2)N1` (stereo unspecified), the “% Inhibition” value was 36% and the Z score was -1.37.
In the case of `Cc1ccc(NC(=O)[C@H]2C[C@H](C(=O)O)CN(C3Cc4ccccc4C3)C2)cn1`, the “% Inhibition” value is reported as -7% and the Z score is reported as 1.45.
In the case of `COc1cc([C@@H](CC(=O)NCc2ccccc2)c2c[nH]c3cccc(OC)c23)cc2c1OCCO2`, the “% Inhibition” value is reported as 22% and the Z score is reported as -3.66.
With `Cc1n[nH]c([C@@H]2CCN(C(=O)c3cn[nH]c3)CCN2Cc2ccccc2)n1` the “% Inhibition” value was -17% and the Z score was 2.5.
`O=C(Nc1cccn2cnnc12)c1ccsc1` was tested, and the “% Inhibition” value was -6% and the Z score was 0.85.
For `Cn1nccc1S(=O)(=O)N1CCNC(=O)C[C@H]1C(F)(F)F`, the “% Inhibition” value was 7% and the Z score was -1.05.
`Cc1ccnc(N2CCN([C@@H](C)c3ccc(S(=O)(=O)N(C)C)cc3)CC2)c1` was tested, and the “% Inhibition” value was -5% and the Z score was 0.85.
For `CCN[C@@H](C(N)=O)c1ccc(F)c(F)c1`, the “% Inhibition” value was -2% and the Z score was 0.28.
With `Cn1ccc2c(-c3ccc(C(=O)N4CCOCC4)o3)ccnc21` the “% Inhibition” value was -9% and the Z score was 1.01.
In the case of `O=C(c1ccc(-c2cnn(-c3nnn[nH]3)c2)cc1)N1CCCCCCC1`, the “% Inhibition” value is reported as -13% and the Z score is reported as 1.84.
`COc1cc2c(cc1NC(=O)N1CCC[C@H](C(=O)N3CCCC3)C1)OCO2` was tested, and the “% Inhibition” value was -11% and the Z score was 1.15.
In the case of `CCc1nccn1CCCNc1nc2cc(C)ccc2o1`, the “% Inhibition” value is reported as -9% and the Z score is reported as 1.81.
With `CN(Cc1ccc(Br)o1)C(=O)c1ncccc1O` the “% Inhibition” value was -12% and the Z score was 1.53.
In the case of `CCCC(=O)N1c2ccccc2C(=C2SC(C(=O)OCC)=C(C(=O)OCC)S2)C(=S)C1(C)C`, the “% Inhibition” value is reported as -6% and the Z score is reported as 0.75.
In the case of `Cc1ncc(-c2nc(-c3cccc(F)c3)nn2C(C)(C)C)c(=O)[nH]1`, the “% Inhibition” value is reported as -19% and the Z score is reported as 2.08.
With `Clc1ccc(CN2CCCN(c3nccn4cnnc34)CC2)cc1` the “% Inhibition” value was -13% and the Z score was 1.72.
`O=C(Nc1ccc2c(c1)OCO2)c1oc2ccccc2c1NC(=O)c1c(F)cccc1F` was tested, and the “% Inhibition” value was -8% and the Z score was 1.59.
For `CN(C(=O)NCc1ccc(N2CCc3ccccc3C2)nc1)C1CC1`, the “% Inhibition” value was -8% and the Z score was 0.89.
For `O=C(NCc1cc[nH]n1)NCc1nccn1CCCc1ccccc1`, the “% Inhibition” value was -7% and the Z score was 1.1.
`CCS(=O)(=O)C[C@H](C)N(C)c1cc(C)nc(C)n1` was tested, and the “% Inhibition” value was -1% and the Z score was 0.18.
With `CCc1cc(N2CC[C@H](N3CCCCC3)C2)ncn1` the “% Inhibition” value was 5% and the Z score was -0.74.
In the case of `CCn1cnnc1CNC1CCN([C@@H](C)Cc2ccccc2)CC1`, the “% Inhibition” value is reported as -11% and the Z score is reported as 1.57.
With `O=C(Nc1nc2c(s1)CN(S(=O)(=O)c1c(F)cccc1F)CC2)c1ccoc1` the “% Inhibition” value was 0% and the Z score was -0.01.
`CCN1CCN(S(=O)(=O)CC2CCCC2)CC1=O` was tested, and the “% Inhibition” value was -19% and the Z score was 1.88.
For `CCC(C)N(CC(=O)N1CCc2sccc2C1COc1ccc(C(C)C)cc1)C(=O)c1ccc(C)cc1` (stereo unspecified), the “% Inhibition” value was 1% and the Z score was -0.18.
In the case of `Cc1cccc(OC/C=C/Cn2ccnc2)c1C`, the “% Inhibition” value is reported as -7% and the Z score is reported as 0.72.
With `Cc1ncsc1C(=O)NCc1ccccc1CN1CCOCC1` the “% Inhibition” value was -4% and the Z score was 0.48.
`Nc1nc(N2CCCCCC2)ncc1C(=O)NCc1ccccc1F` was tested, and the “% Inhibition” value was 5% and the Z score was -0.59.
In the case of `NC(=O)Nc1ccc(Cl)c(OC(F)F)c1`, the “% Inhibition” value is reported as -6% and the Z score is reported as 0.69.
In the case of `O=C(Nc1nsc(Cc2ccc(F)cc2)n1)[C@@H]1CCCO1`, the “% Inhibition” value is reported as -13% and the Z score is reported as 2.47.
`Cc1cc(=O)c(C(=O)N(C)CC2(CO)CCC2)c(C)[nH]1` was tested, and the “% Inhibition” value was -7% and the Z score was 1.34.
For `CCCc1cc(C(=O)NCc2nnc(CC)s2)no1`, the “% Inhibition” value was -10% and the Z score was 1.61.
`CCN(C(=O)c1cc(C)nc2onc(C)c12)c1cccc(Br)c1` was tested, and the “% Inhibition” value was -6% and the Z score was 0.65.
`O=C(COc1ccccc1)Nc1ccc2c(c1)C(O)=Nc1cccnc1O2` was tested, and the “% Inhibition” value was 46% and the Z score was -10.48.
For `CC1OCCC1S(=O)(=O)NCC1(C2CCC2)CCC1` (stereo unspecified), the “% Inhibition” value was 9% and the Z score was -1.2.
With `CCN(CC)S(=O)(=O)c1cc(C)c(C)c(NC(=O)c2ccc(F)c(S(=O)(=O)N3CCC3)c2)c1` the “% Inhibition” value was 0% and the Z score was -0.05.
`Cc1ccc(OCCCO[C@H]2CCCc3c[nH]nc32)cc1C` was tested, and the “% Inhibition” value was -6% and the Z score was 0.54.
For `O=C(c1cn(-c2cc(N3CCOCC3)ncn2)cn1)N1CCOCC1`, the “% Inhibition” value was -11% and the Z score was 1.19.
For `CCc1nnc2cc(N3CCN(C(=O)Nc4cccc(F)c4)CC3)cnn12`, the “% Inhibition” value was 0% and the Z score was 0.02.
In the case of `COc1ccc([C@H]2CC(=O)Nc3onc(C)c32)cc1Cn1cccn1`, the “% Inhibition” value is reported as -12% and the Z score is reported as 2.03.
For `COCCCN1C(=O)CC[C@@H]2CN(C(=O)Cc3ccc(F)cc3C)CC[C@@H]21`, the “% Inhibition” value was -13% and the Z score was 2.52.
With `CCCn1ccnc1CCCN(C)S(=O)(=O)N1CCOC(C)(C)C1` the “% Inhibition” value was -9% and the Z score was 1.21.
For `CC(C)n1ccc(C(=O)N[C@@H](C)c2ncnn2C)n1`, the “% Inhibition” value was -9% and the Z score was 1.29.
In the case of `Cc1cc(CNC2C[C@H]3CN(Cc4ccccc4)CCN3C2)ccn1` (stereo partly specified), the “% Inhibition” value is reported as -9% and the Z score is reported as 1.86.
In the case of `CC12CC(c3ccccc3O1)N(C(=O)c1cccc(F)c1)C(=O)N2c1ccccc1` (stereo unspecified), the “% Inhibition” value is reported as 1% and the Z score is reported as -0.21.
`Cc1ccc(CN2C(=O)C3(CCOCC3)C[C@H]2c2nnnn2C(C)(C)C)cc1C` was tested, and the “% Inhibition” value was -10% and the Z score was 1.62.
For `COc1cccc(CNC(=O)CCc2conc2-c2ccc(C)cc2)c1`, the “% Inhibition” value was -4% and the Z score was 0.55.
For `Cc1c(C)c(C(=O)Nc2cccc(F)c2)n(Cc2ccccc2F)c1C`, the “% Inhibition” value was 0% and the Z score was 0.04.
In the case of `O=C(NCC1CCCO1)NC1CC1c1ccccc1F` (stereo unspecified), the “% Inhibition” value is reported as -12% and the Z score is reported as 1.38.
`CN(C(=O)Nc1ccn(-c2ccc(Cl)cc2C#N)n1)[C@H]1C[C@@H](C(N)=O)C1` was tested, and the “% Inhibition” value was -14% and the Z score was 1.49.
`CC(=O)N[C@@H]1C[C@H](CCc2ccccc2)O[C@H](c2cnn(C)c2C)C1` was tested, and the “% Inhibition” value was -1% and the Z score was 0.11.
`COc1ccc(CCc2nc(NC(=O)[C@H](C)N3Cc4ccccc4C3=O)n[nH]2)cc1OC` was tested, and the “% Inhibition” value was 4% and the Z score was -0.48.
In the case of `CCCCn1ccnc1C1CCN(c2ccnc(C)c2)CC1`, the “% Inhibition” value is reported as 4% and the Z score is reported as -0.71.
With `c1ccc(OCCCn2ccnc2)c(CN2CCCN3CCC[C@H]3C2)c1` the “% Inhibition” value was -10% and the Z score was 0.95.
With `CN(c1nc2c(s1)C[C@@H](c1ccccc1)CC2)S(=O)(=O)c1cccnc1` the “% Inhibition” value was -10% and the Z score was 1.61.
With `CO[C@H]1CCC12CCN(S(=O)(=O)c1ccc(Cl)c(Cl)c1)CC2` the “% Inhibition” value was -12% and the Z score was 1.52.
`CCC(C)C(NC(=O)C1CCC(C)CC1)C(=O)NC1CCN(Cc2ccccc2)CC1` (stereo unspecified) was tested, and the “% Inhibition” value was -3% and the Z score was 0.32.
In the case of `CCN(C(=O)c1ccc(-c2cncc3ccccc23)cc1)[C@@H](C)CCO`, the “% Inhibition” value is reported as -19% and the Z score is reported as 2.47.
